Data on 26 compounds can be found in PubChem BioAssay AID1508624 (National Center for Advancing Translational Sciences (NCATS), 2021).

Each structure is given as a SMILES string. Screen size: about 48,000 compounds; about 120 (0.25%) were called active. Another 4% or so got no clear call; they are omitted. The call rests on the fitted dose curve; in most records, active means well fitted activation curve with a large enough effect; inconclusive means small, poorly fitted or top-dose-only effect, or another doubt; inactive means no such curve, though single readings can be large or run the other way. The list shows a part of the results.

The assay is described as follows: Primary qHTS for Identification of Small Molecule Activators of Huntingtin-Antisense Promoter Activity. Further: nearly all actives have a fitted effect of over 55% in size. The note with it: HEK293 HTT-AS promoter firefly luciferase reporter (activity 0% = vehicle and -100% = no light), 24 h; series mostly up to 57.5 µM; activity change, positive = activation: at the top concentration. The method, boiled down:
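Firefly luciferase readout (Dual-Glo, 10 min RT) after 24 h, 37 °C compound exposure (final up to 57.5 uM) of HEK293 reporter cells cultured 24 h beforehand; PTC124 at 50 uM final as control inhibitor; activity scaled vehicle 0%, zero RLU -100%.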
For orientation: Quantitative high-throughput screening tests each substance at several concentrations.
`COc1ccc(-c2c(C)nn3c(-c4ccccc4)cc(-c4ccccc4)nc23)cc1OC`: the “activity change, positive = activation” value was inactive: 0.821%.
As for `COc1ccc(CCN2C(=O)c3[nH]nc(-c4ccccc4O)c3C2c2ccc(O)c(OC)c2)cc1` (stereo unspecified), the figure is inactive: -9.26%.
To `O=C(NC1CCCCC1)c1cc(Nc2ccccc2)nc2ccccc12` belongs inactive: -9.35%; to `COC(=O)c1ccc(NC(=O)CCNS(=O)(=O)c2cccc3nsnc23)cc1`, inactive: -5.71%; to `CCC(CC)C(=O)Nc1nnc2n1CCS2`, inactive: -1.7%.
On to `O=C(Cn1c(=O)n(-c2ccccc2)c(=O)c2c3c(sc21)CCCC3)Nc1cccc(F)c1`, for which the “activity change, positive = activation” value was inactive: -6.13%.
As for `COc1cccc(Cc2nc3ccccc3nc2SCC(=O)Nc2ccccc2F)c1`, the figure is inactive: -13.6%; as for `CN(C)c1ccc(CNC(=O)c2ccc(NC(=O)c3nsc4ccccc34)cc2)cc1`, inactive: -44.1%; as for `Cc1cccc(CNC(=O)c2ccc3nc(-c4ccccc4)c(-c4ccccc4)nc3c2)c1`, inactive: -10.2%.
To `Cc1c(C(=O)NCc2ccccc2Cl)cccc1-n1cnc2cccnc21` belongs inactive: -2.62%.
As for `Cc1ccc(Nc2cc(-c3cccc(N4C(=O)c5ccccc5C4=O)c3)ncn2)cc1NS(C)(=O)=O`, the figure is inactive: -57.7%; as for `CCC1(c2ccccc2)C(=O)NCNC1=O`, “inactive”; as for `CC(C)C1N=C2c3ccccc3N=C(SCC(=O)NCc3ccc(F)cc3)N2C1=O` (stereo unspecified), inactive: 1.79%.
Regarding `Cc1cccc(NC(=O)Cn2c(=O)n(CCc3ccccc3)c(=O)c3sc4ccccc4c32)c1`, the “activity change, positive = activation” value was inactive: 23.7%.
As for `CCC12CN3CC(C)(CN(C1)C3c1c(C)n(C)c3ccccc13)C2=O` (stereo unspecified), the figure is inactive: 1.34%.
To `O=C1CC(c2ccccc2)Cc2[nH]c(=O)c(-c3nc(-c4ccc(Cl)c(Cl)c4)cs3)cc21` (stereo unspecified) belongs inactive: -15.3%.
Regarding `COC(=O)C1=C(C)NC(C)=C(C(=O)OC(C)(C)CN(C)CCC(c2ccccc2)c2ccccc2)C1c1cccc([N+](=O)[O-])c1` (stereo unspecified), the “activity change, positive = activation” value is inactive: -77.1%.
Turning to `CC(C)(C)c1ccc(C(=O)NC2=NC(c3cccc(F)c3)CC(=O)N2)cc1` (stereo unspecified), the “activity change, positive = activation” value is inactive: -1.43%.
To `Cc1cc(C)c2oc(C(=O)NCCc3ccc(S(N)(=O)=O)cc3)cc(=O)c2c1` belongs inactive: 20.4%.
As for `COc1ccc(Cl)cc1NC(=O)C(=O)NCc1ccc(Cl)cc1`, the figure is inactive: 6.16%.
To `CCS(=O)(=O)NCCc1sc2nc(-c3ccc(OC)cc3)nn2c1C` belongs inactive: -1.64%; to `C[C@]12CCC(=O)C=C1CC[C@@H]1[C@@H]2CC[C@@]2(C)[C@H]1CC[C@]2(O)C(=O)CO`, inactive: -15%; to `O=C(CNS(=O)(=O)c1ccc(Br)s1)N1CCN(c2ccc(F)cc2)CC1`, inactive: -37.2%.
In the case of `COCCNS(=O)(=O)c1cc(-c2nn3c(C)nnc3c3ccccc23)ccc1C`, the “activity change, positive = activation” value is inactive: -11%.
As for `Cc1ccc(NC(=O)N2CCN(C(=O)c3nsc4ccccc34)CC2)cc1C`, the figure is inactive: -10.2%; as for `Cc1ccc(C(=O)c2sc(Nc3ccc(F)cc3)c(C#N)c2N)cc1`, inactive: -0.104%.
